Test in all cases: Primary Screen for Target Class Profiling of Small Molecule Inhibitors of Methyltransferases
The target of experiment [1] is Glycine N-methyltransferase (Homo sapiens) (UniProt Q14749). To be noted: purified enzyme, MTase-Glo SAH luminescence; measured here: GNMT inhibition; at 40 µM; stronger effect = lower value. The gist of the method:
(§1)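 Each enzyme was reacted with SAM and its substrate, with compounds tested once at 40 uM; SAH formed was read by MTase-Glo luminescence.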

Experiment [2] has as its target Guanidinoacetate N-methyltransferase (Homo sapiens) (UniProt Q14353). To be noted: purified enzyme, MTase-Glo SAH luminescence; measured here: GAMT inhibition; at 40 µM; stronger effect = lower value. The gist of the method: as §1
The target of experiment [3] is Histamine N-methyltransferase (Homo sapiens) (UniProt P50135). Particulars: purified enzyme, MTase-Glo SAH luminescence; measured here: HNMT inhibition; at 40 µM; stronger effect = lower value. The gist of the method:
as §1

In experiment [4] the target is Nicotinamide N-methyltransferase (Homo sapiens) (UniProt P40261). Particulars: purified enzyme, MTase-Glo SAH luminescence; measured here: NNMT inhibition; at 40 µM; stronger effect = lower value. The method in brief: as §1
The target in experiment [5] is Phenylethanolamine N-methyltransferase (Homo sapiens) (UniProt P11086). Particulars: purified enzyme, MTase-Glo SAH luminescence; measured here: PNMT inhibition; at 40 µM; stronger effect = lower value. The gist of the method:
as §1

SMILES strings stand for the structures. This is one part of the list. These are further read-outs of the screen, such as a control signal, another cell line or another target. No call is given for them.
% is scaled to controls: 0 for no effect and ±100 for the full control effect.

Turning to `CCN1C(=O)c2ccccc2C1Nc1ccc(OCCN2CCCCC2)cc1` (stereo not given), the activity change, negative = inhibition is 3.27% in experiment [1]; 5.2% in experiment [2]; -61.1% in experiment [3]; -8.81% in experiment [4]; 5.89% in experiment [5].

For `O=C(Cn1c(=O)oc2cc(S(=O)(=O)N3CCCC3)ccc21)NC1CCN(Cc2ccccc2)CC1`, the activity change, negative = inhibition in experiment [1] was 13.4%; in experiment [2], 0%; in experiment [3], 4.25%; in experiment [4], 7.2%; in experiment [5] it was 2.13%.

As for `CC(C)NC(=O)c1ccc2c(=O)n(Cc3ccccc3)c3nn(Cc4ccc(Cl)cc4)c(=O)n3c2c1`, the activity change, negative = inhibition in experiment [1] came out at 5.71%; in experiment [2], 6.47%; in experiment [3], 7.51%; in experiment [4], 2.23%; in experiment [5], 2.43%.

`CC(=O)N1c2ccc(S(=O)(=O)N(C)CC(=O)N3CCN(c4cc(C)ccc4C)CC3)cc2CC1C` (stereo not given): the activity change, negative = inhibition in experiment [1] is 4.89%; in experiment [2], 1.17%; in experiment [3] it was 6.76%; in experiment [4], -3.49%; in experiment [5], 4.58%.

As to `CC[C@H](C(=O)Nc1ccccc1N1CCCC1)c1ccccc1`, the activity change, negative = inhibition in experiment [1] was 2.63%; in experiment [2] it was -2.95%; in experiment [3], -4.77%; in experiment [4], -6.56%; in experiment [5], -8.98%.

For the compound `COc1ccc(-c2n[nH]n3c2nc(=O)c2ccc(C(=O)NC(C)c4ccccc4)cc23)cc1` (stereo not given), the activity change, negative = inhibition in experiment [1] is -6.8%; in experiment [2] it was 0.214%; in experiment [3], 1.63%; in experiment [4] it was -2.08%; in experiment [5], -4.06%.

Regarding `CC(C)c1cccc2c(-c3ccccc3)cc(-c3ccc(-c4ccc(C(=O)O)cc4)[nH]3)nc12`, the activity change, negative = inhibition was -12.8% in experiment [1]; -22.9% in experiment [2]; 4.03% in experiment [3]; -83% in experiment [4]; -8.8% in experiment [5].

On to `CC(C)OCCCNC(=O)CCc1nnc2n(Cc3ccccc3Cl)c(=O)c3ccccc3n12`, for which the activity change, negative = inhibition is -2.81% in experiment [1]; 0.361% in experiment [2]; 10.7% in experiment [3]; 10.9% in experiment [4]; 2.2% in experiment [5].

Consider `NC(=O)c1ccc2c(c1)C1C=CCC1C(c1ccc(Cl)cc1)N2` (stereo not given), for which the activity change, negative = inhibition was -26.2% in experiment [1]; 0.016% in experiment [2]; -15.8% in experiment [3]; -18.1% in experiment [4]; -18.3% in experiment [5].

Turning to `O=C(Cn1ccc2cc(S(=O)(=O)N3CCCC3)ccc21)NCCc1cccs1`, the activity change, negative = inhibition is 1.6% in experiment [1]; 4.72% in experiment [2]; 6.82% in experiment [3]; 0.33% in experiment [4]; -1.85% in experiment [5].

With `CCOC(=O)c1cc2n(n1)CC(C)(C(=O)NCCC(C)C)N(c1ccc(C)cc1)C2=O` (stereo not given), the activity change, negative = inhibition in experiment [1] was 4.25%; in experiment [2], 0%; in experiment [3], 7.86%; in experiment [4] it was 7.95%; in experiment [5], 0.525%.

Turning to `Cc1noc(-c2ccco2)c1C(=O)NCc1cccc(Cl)c1`, the activity change, negative = inhibition in experiment [1] is -7.13%; in experiment [2], -1.86%; in experiment [3] it was -3.26%; in experiment [4] it was -8.81%; in experiment [5], 12.1%.

As for `COc1cccc(S(=O)(=O)N2CCC(OCCOc3ccccc3)CC2)c1`, the activity change, negative = inhibition in experiment [1] is 4.4%; in experiment [2] it was 2.66%; in experiment [3], 16.6%; in experiment [4], 5.05%; in experiment [5] it was 1.64%.

`Cc1ccc(CNC(=O)C2(C)Cn3nc(C(=O)NCCC4=CCCCC4)cc3C(=O)N2C)cc1` (stereo not given): the activity change, negative = inhibition in experiment [1] amounted to 3.23%; in experiment [2], 0.867%; in experiment [3] it was 3.81%; in experiment [4], 5.65%; in experiment [5], 3.8%.

As to `CC1=C2C(O)C(=O)OC(c3ccoc3)C2(C)CCC1O` (stereo not given), the activity change, negative = inhibition in experiment [1] was -0.18%; in experiment [2], 1.62%; in experiment [3], 3.75%; in experiment [4] it was -11.8%; in experiment [5], 2.34%.

As to `Clc1cccc(Cl)c1NC1=NCCN1`, the activity change, negative = inhibition in experiment [1] was 3.94%; in experiment [2], 14.3%; in experiment [3], 12.4%; in experiment [4], -3.12%; in experiment [5] it was 7.7%.

As to `CC(CN)(c1ccccn1)N1CCOCC1` (stereo not given), the activity change, negative = inhibition was -3.99% in experiment [1]; -5.32% in experiment [2]; -16.4% in experiment [3]; -7.82% in experiment [4]; -2.55% in experiment [5].

Take `CCCn1c(=O)c2ccccc2n2c(=O)n(CC(=O)Nc3ccc(OC)c(OC)c3)nc12`: the activity change, negative = inhibition in experiment [1] was -4.78%; in experiment [2], 4.96%; in experiment [3], 3.34%; in experiment [4], 1.79%; in experiment [5] it was 1.73%.

With `CC(NC1CCC2(CCNCC2)CC1)c1ccc(S(C)(=O)=O)cc1` (stereo not given), the activity change, negative = inhibition in experiment [1] was -4.92%; in experiment [2], -7.2%; in experiment [3], -10.6%; in experiment [4] it was -11.2%; in experiment [5], -10.5%.

Take `CCCCS(=O)(=O)N1CC(F)(F)C[C@H]1c1nnc(C)o1`: the activity change, negative = inhibition was -0.354% in experiment [1]; -3.52% in experiment [2]; -0.827% in experiment [3]; -9.57% in experiment [4]; 11.1% in experiment [5].
